# The list shows a part of the results.
# Key:
# Experiment in all cases: glycan array binding signal (z-score within array); higher = stronger binding
# Details in all cases: glycan notation: IUPAC condensed, linker removed
# [1] = molecular target: Neu5Ac(a2-6)Gal(b1-4)GlcNAc(b1-6)GalNAc
# Procedure, shortened: (§1)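 From the Consortium for Functional Glycomics database, 3228 arrays were curated, keeping only those whose protein sequence was available. Binding is given as a within-array Z-score averaged across arrays sharing a protein sequence and across linkers. Negative Z-scores can be read as non-binding.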
# [2] = molecular target: Neu5Ac(a2-6)Gal(b1-4)GlcNAc(b1-6)[Gal(b1-3)GlcNAc(b1-3)]Gal(b1-4)Glc
# Procedure, shortened: as §1
# [3] = molecular target: Neu5Ac(a2-6)Gal(b1-4)GlcNAc(b1-6)[Gal(b1-3)]GalNAc
# Procedure, shortened: as §1
# [4] = molecular target: Neu5Ac(a2-6)Gal(b1-4)GlcNAc6S
# Procedure, shortened: as §1
# [5] = molecular target: Neu5Ac(a2-6)GalNAc
# Procedure, shortened: as §1
# [6] = molecular target: Neu5Ac(a2-6)GalNAc(b1-4)GlcNAc
# Procedure, shortened: as §1
# [7] = molecular target: Neu5Ac(a2-6)GalNAc(b1-4)GlcNAc6S
# Procedure, shortened: as §1
# [8] = molecular target: Neu5Ac(a2-6)GlcNAc(b1-4)GlcNAc
# Procedure, shortened: as §1
# [9] = molecular target: Neu5Ac(a2-6)GlcNAc(b1-4)GlcNAc(b1-4)GlcNAc
# Procedure, shortened: as §1
# [10] = molecular target: Neu5Ac(a2-8)Neu5Ac
# Procedure, shortened: as §1
# [11] = molecular target: Neu5Ac(a2-8)Neu5Ac(a2-3)Gal(b1-3)GalNAc(b1-4)[Neu5Ac(a2-3)]Gal(b1-4)Glc
# Procedure, shortened: as §1
# [12] = molecular target: Neu5Ac(a2-8)Neu5Ac(a2-3)Gal(b1-3)GalNAc(b1-4)[Neu5Ac(a2-8)Neu5Ac(a2-3)]Gal(b1-4)Glc
# Procedure, shortened: as §1
# [13] = molecular target: Neu5Ac(a2-8)Neu5Ac(a2-3)Gal(b1-4)Glc
# Procedure, shortened: as §1
# [14] = molecular target: Neu5Ac(a2-8)Neu5Ac(a2-3)Gal(b1-4)GlcNAc
# Procedure, shortened: as §1
# [15] = molecular target: Neu5Ac(a2-8)Neu5Ac(a2-3)[Gal(b1-3)GalNAc(b1-4)]Gal(b1-4)Glc
# Procedure, shortened: as §1
# [16] = molecular target: Neu5Ac(a2-8)Neu5Ac(a2-3)[GalNAc(b1-4)]Gal(b1-4)Glc
# Procedure, shortened: as §1
# [17] = molecular target: Neu5Ac(a2-8)Neu5Ac(a2-8)Neu5Ac
# Procedure, shortened: as §1
# [18] = molecular target: Neu5Ac(a2-8)Neu5Ac(a2-8)Neu5Ac(a2-3)Gal(b1-4)Glc
# Procedure, shortened: as §1
# [19] = molecular target: Neu5Ac(a2-8)Neu5Ac(a2-8)Neu5Ac(a2-3)[Gal(b1-3)GalNAc(b1-4)]Gal(b1-4)Glc
# Procedure, shortened: as §1
# [20] = molecular target: Neu5Ac(a2-8)Neu5Ac(a2-8)Neu5Ac(a2-3)[GalNAc(b1-4)]Gal(b1-4)Glc
# Procedure, shortened: as §1
# [21] = molecular target: Neu5Ac(a2-8)Neu5Ac(a2-8)Neu5Ac(a2-8)Neu5Ac(a2-3)[GalNAc(b1-4)]Gal(b1-4)Glc
# Procedure, shortened: as §1
# [22] = molecular target: Neu5Ac(a2-8)Neu5Gc(a2-3)Gal(b1-4)GlcNAc
# Procedure, shortened: as §1
# [23] = molecular target: Neu5Ac(b2-6)Gal(b1-4)GlcNAc
# Procedure, shortened: as §1
# [24] = molecular target: Neu5Ac(b2-6)GalNAc
# Procedure, shortened: as §1
# [25] = molecular target: Neu5Ac9Ac(a2-3)Gal(b1-3)GlcNAc
# Procedure, shortened: as §1
# [26] = molecular target: Neu5Ac9Ac(a2-3)Gal(b1-4)GlcNAc
# Procedure, shortened: as §1
# [27] = molecular target: Neu5Ac9Ac(a2-6)Gal(b1-4)GlcNAc
# Procedure, shortened: as §1
# [28] = molecular target: Neu5Gc(a2-3)Gal(b1-3)GlcNAc
# Procedure, shortened: as §1
# [29] = molecular target: Neu5Gc(a2-3)Gal(b1-3)[Fuc(a1-4)]GlcNAc
# Procedure, shortened: as §1
# [30] = molecular target: Neu5Gc(a2-3)Gal(b1-4)Glc
# Procedure, shortened: as §1
# [31] = molecular target: Neu5Gc(a2-3)Gal(b1-4)GlcNAc
# Procedure, shortened: as §1
# [32] = molecular target: Neu5Gc(a2-3)Gal(b1-4)GlcNAc(b1-3)Gal(b1-4)GlcNAc(b1-2)Man(a1-3)[Neu5Gc(a2-3)Gal(b1-4)GlcNAc(b1-3)Gal(b1-4)GlcNAc(b1-2)Man(a1-6)]Man(b1-4)GlcNAc(b1-4)GlcNAc
# Procedure, shortened: as §1
# [33] = molecular target: Neu5Gc(a2-3)Gal(b1-4)[Fuc(a1-3)]GlcNAc
# Procedure, shortened: as §1
# [34] = molecular target: Neu5Gc(a2-6)Gal(b1-4)GlcNAc
# Procedure, shortened: as §1
# [35] = molecular target: Neu5Gc(a2-6)GalNAc
# Procedure, shortened: as §1
# [36] = molecular target: Neu5Gc(a2-8)Neu5Ac(a2-3)Gal(b1-4)GlcNAc
# Procedure, shortened: as §1
# [37] = molecular target: Neu5Gc(a2-8)Neu5Gc(a2-3)Gal(b1-4)GlcNAc
# Procedure, shortened: as §1
# [38] = molecular target: Neu5Gc(a2-8)Neu5Gc(a2-3)Gal(b1-4)GlcNAc(b1-3)Gal(b1-4)GlcNAc
# Procedure, shortened: as §1
binder,measurement,setting,value
Cohesin-marm-DC-ASGPR-CRD (protein) LDITSHHHHHHDDLDAVRIKVDTVNAKPGDTVRIPVRFSGIPSKGIANCDFVYSYDPNVLEIIEIEPGDIIVDPNPDKSFDTAVYPDRKIIVFLFAEDSGTGAYAITKDGVFATIVAKVKEGAPNGLSVIKFVEVGGFANNDLVEQKTQFFDGGVNVGDTTEPATPTTPVTTPTTTDDLDAASCPINWVEHQGSCYWFSRSGKTWPEAERYCQLENTHLVVINSREEQNFVQAHLGSAYTWMGLSDPEGVWKWVDGTDYSSGFQNWKPGQPDDWQGHGLGGGEDCAHFHPDGRWNDDVCQRSYHWVCEAGLTQASQDSH,glycan array binding signal (z-score),[1],-0.314
same,glycan array binding signal (z-score),[2],-0.462
same,glycan array binding signal (z-score),[3],-0.371
same,glycan array binding signal (z-score),[4],-0.451
same,glycan array binding signal (z-score),[5],3.16
same,glycan array binding signal (z-score),[6],2.67
same,glycan array binding signal (z-score),[7],2.35
same,glycan array binding signal (z-score),[8],-0.444
same,glycan array binding signal (z-score),[9],-0.45
same,glycan array binding signal (z-score),[10],-0.427
same,glycan array binding signal (z-score),[11],-0.307
same,glycan array binding signal (z-score),[12],-0.448
same,glycan array binding signal (z-score),[13],-0.448
same,glycan array binding signal (z-score),[14],-0.462
same,glycan array binding signal (z-score),[15],2.38
same,glycan array binding signal (z-score),[16],2.56
same,glycan array binding signal (z-score),[17],-0.444
same,glycan array binding signal (z-score),[18],-0.449
same,glycan array binding signal (z-score),[19],-0.419
same,glycan array binding signal (z-score),[20],2.38
same,glycan array binding signal (z-score),[21],3.12
same,glycan array binding signal (z-score),[22],-0.459
same,glycan array binding signal (z-score),[23],-0.444
same,glycan array binding signal (z-score),[24],-0.192
same,glycan array binding signal (z-score),[25],-0.164
same,glycan array binding signal (z-score),[26],-0.447
same,glycan array binding signal (z-score),[27],-0.353
same,glycan array binding signal (z-score),[28],-0.441
same,glycan array binding signal (z-score),[29],-0.423
same,glycan array binding signal (z-score),[30],-0.435
same,glycan array binding signal (z-score),[31],-0.42
same,glycan array binding signal (z-score),[32],-0.396
same,glycan array binding signal (z-score),[33],2.58
same,glycan array binding signal (z-score),[34],-0.421
same,glycan array binding signal (z-score),[35],2.85
same,glycan array binding signal (z-score),[36],-0.448
same,glycan array binding signal (z-score),[37],-0.448
same,glycan array binding signal (z-score),[38],-0.462
